For assay [1], the target named is strep-tagged QseE_(38-171) (Salmonella enterica serovar Typhimurium SL1344). The experiment in a line: pull-down; Strep-tagged QseE (20 µM) and QseG (40 µM) in 20 mM Tris-HCl pH 8.0, 150 mM NaCl, 0.002% LMNG, 0.0002% CHS; Strep-Tactin beads, 25°C, 30 min; eluted with desthiobiotin; SDS-PAGE, Coomassie; both purified.
In assay [2] the target is full-length QseE (QseEfl), C-terminal Strep II tag (Salmonella enterica serovar Typhimurium SL1344). The assay is described as above.
Assay [3] has the same target. The assay can be described thus: SEC; Superdex 200 10/300 GL; QseE and QseG alone or mixed at 1:2 molar ratio (QseE to QseG), incubated at 37°C for 30 min; column buffer as in QseE purification; fractions on SDS-PAGE; both purified. A general note: SEC sorts molecules by how far they enter the pores of the column.
The target is the same in assay [4]. The experiment in a line: cryo-EM structure; QseG_(37-221) and QseE mixed at 3:1 molar ratio, complex separated by SEC; 3.9 Å map with C2 symmetry imposed; model limited to QseG 58-220 and QseE 34-173; both purified.

No constants are given. Whether binding was seen depends on the method and setting. Some binding calls cover weakened binding; strength is not graded here.

Regarding “QseG (mature lipoprotein, QseG_(37-end)) (from UniProt A0A4Z0KM88 37-254)”, the binding entry is “no binding (tested: QseG 40 µM, Strep-tagged QseE 20 µM)” in assay [1]; “binds” in assay [2]; “binds” in assay [3].
Consider “QseG_(37-193) (from UniProt A0A4Z0KM88 37-193) (domain or fragment)”, for which the binding result in assay [2] is “no binding (tested: QseG 40 µM, Strep-tagged QseE 20 µM)”.
On to “QseG_(37-221) (from UniProt A0A4Z0KM88 37-221) (domain or fragment)”, for which the binding result in assay [2] and in assay [4] was “binds” each time.
On to “QseG_(37-214) (from UniProt A0A4Z0KM88 37-214) (domain or fragment)”, for which the binding result in assay [2] is “no binding (tested: QseG 40 µM, Strep-tagged QseE 20 µM)”.
On the same count and under the same terms, as for “QseG_(37-181) (from UniProt A0A4Z0KM88 37-181) (domain or fragment)”, the entry is “no binding (tested: QseG 40 µM, Strep-tagged QseE 20 µM)”.

The record behind these values is paper PMC12691602, “Cryo-EM structure of the QseG-QseE complex reveals an accessory protein-driven two-component system activation mechanism” (mBio, 2025).
